Source: the supplement of paper PMC10320760
Single values of this set are uncertain.

B1: Ydj1; a variant is named by its letters at X, in order (parent)
chain: MVKETKFYDILGVPVTATDVEIKKAYRKCALKYHPDKNPSEEAAEKFKEASAAYEILSDPEKRDIYDQFGEDGLSGAGGAGGFPGGGFGFGDDIFSQFFGAGGAQRPRGPQRGKDIKHEISASLEELYKGRTAKLALNKQILCKECEGRGGKKGAVKKCTSCNGQGIKFVTRQMGPMIQRFQTECDVCHGTGDIIDPKDRCKSCNGKKVENERKILEVHVEPGMKDGQRIVFKGEADQAPDVIPGDVVFIVSERPHKSFKRDGDDLVYEAEIDLLTAIAGGEFALEHVSGDWLKVGIVPGEVIAPGMRKVIEGKGMPIPKYGGYGNLIIKFTIKFPENHFTSEENLKKLEEILPPRIVPAIPKKATVDECVLADFDPAKYNRTRASRGGANYDSDEEEQGGEGVQCXXX

Variants of: B1
Experiment: enrichment factor, frequency at 37 °C / frequency at 25 °C (thermotolerance selection) (ratio); higher = more growth at 37 °C, higher likelihood of farnesylation
Details: with Saccharomyces cerevisiae ydj1Δ (yWS304); selective temperature 37 °C; reference temperature 25 °C
Procedure: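 Pooled library of all 8,000 Ydj1-CXXX C-terminal motif variants (native CASQ replaced by C + three variable residues, one codon per amino acid) expressed from a CEN plasmid in S. cerevisiae ydj1Δ (yWS304). The library was grown in SC-Ura liquid to A600 ~2 (~8 generations) at permissive 25 °C or selective 37 °C. Reads from 8 and 7 replicates were pooled and variants counted by NGS. Enrichment factor = frequency at 37 °C / frequency at 25 °C, with a +1 correction; it reports Ydj1-dependent thermotolerance, used as a read-out of farnesylation by yeast FTase.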

| Variant | enrichment factor |
| --- | --- |
| GGV | 0.609 |
| HGV | 0.664 |
| IGV | 1.44 |
| KGV | 0.712 |
| LGV | 1.18 |
| MGV | 1.26 |
| NGV | 1.31 |
| PGV | 1.42 |
| CGV | 0.744 |
| QGV | 1.79 |
| RGV | 1.4 |
| SGV | 1.66 |
| TGV | 1.54 |
| VGV | 1.58 |
| WGV | 1.59 |
| YGV | 0.795 |
| DGV | 0.185 |
| AGW | 0.606 |
| EGW | 1.7 |
| FGW | 0.815 |
| GGW | 1.92 |
| HGW | 1.91 |
| IGW | 1.38 |
| KGW | 1.51 |

| Variant | enrichment factor |
| --- | --- |
| LGW | 1.02 |
| MGW | 0.643 |
| NGW | 1.56 |
| PGW | 1.28 |
| CGW | 0.108 |
| QGW | 1.26 |
| RGW | 0.838 |
| SGW | 0.933 |
| TGW | 1.63 |
| VGW | 1.24 |
| WGW | 1.37 |
| YGW | 1.63 |
| DGW | 0.463 |
| AGY | 1.7 |
| EGY | 1.4 |
| FGY | 1.02 |
| GGY | 1.02 |
| HGY | 1.49 |
| IGY | 0.934 |
| KGY | 1.51 |
| LGY | 1.05 |
| MGY | 1.5 |
| NGY | 1.45 |
| PGY | 1.78 |

| Variant | enrichment factor |
| --- | --- |
| CGY | 0.072 |
| QGY | 1.98 |
| RGY | 1.2 |
| SGY | 1.66 |
| TGY | 1.69 |
| VGY | 1.63 |
| WGY | 1.59 |
| YGY | 0.852 |
| DGY | 0.132 |
| AHA | 1.41 |
| EHA | 1.48 |
| FHA | 3.49 |
| GHA | 1.5 |
| HHA | 2.8 |
| IHA | 1.41 |
| KHA | 1.6 |
| LHA | 1.61 |
| MHA | 2.11 |
| NHA | 2.08 |
| PHA | 2.24 |
| CHA | 1.28 |
| QHA | 2.14 |
| RHA | 1.45 |
| SHA | 1.81 |

| Variant | enrichment factor |
| --- | --- |
| THA | 1.94 |
| VHA | 1.6 |
| WHA | 2.38 |
| YHA | 5.63 |
| DHA | 1.66 |
| AHC | 1.19 |
| EHC | 1.75 |
| FHC | 1.63 |
| GHC | 1.56 |
| HHC | 2.38 |
| IHC | 2.1 |
| KHC | 1.95 |
| LHC | 0.858 |
| MHC | 1.09 |
| NHC | 1.44 |
| PHC | 1.69 |
| CHC | 0.339 |
| QHC | 2.42 |
| RHC | 1.54 |
| SHC | 0.162 |
| THC | 0.0622 |
| VHC | 2.79 |
| WHC | 1.33 |
| YHC | 3.13 |

| Variant | enrichment factor |
| --- | --- |
| DHC | 1.07 |
| AHD | 0.719 |
| EHD | 0.26 |
| FHD | 0.286 |
| GHD | 0.161 |
| HHD | 0.221 |
| IHD | 1.06 |
| KHD | 0.982 |
| LHD | 1.01 |
| MHD | 0.205 |
| NHD | 0.224 |
| PHD | 0.334 |
| CHD | 1.09 |
| QHD | 0.444 |
| RHD | 1.27 |
| SHD | 0.235 |
| THD | 0.763 |
| VHD | 2.1 |
| WHD | 1.07 |
| YHD | 0.228 |
| DHD | 0.0991 |
| AHE | 1.25 |
| EHE | 0.386 |
| FHE | 0.328 |

| Variant | enrichment factor |
| --- | --- |
| GHE | 0.346 |
| HHE | 1.52 |
| IHE | 1.45 |
| KHE | 1.38 |
| LHE | 1.58 |
| MHE | 0.948 |
| NHE | 0.498 |
| PHE | 1.28 |
| CHE | 1.7 |
| QHE | 1.24 |
| RHE | 0.941 |
| SHE | 0.536 |
| THE | 1.39 |
| VHE | 1.7 |
| WHE | 2.02 |
| YHE | 0.17 |
| DHE | 0.182 |
| AHF | 2.57 |
| EHF | 1.54 |
| FHF | 1.49 |
| GHF | 0.66 |
| HHF | 1.42 |
| IHF | 2.05 |
| KHF | 0.764 |

| Variant | enrichment factor |
| --- | --- |
| LHF | 1.32 |
| MHF | 2.02 |
| NHF | 1.68 |
| PHF | 2.06 |
| CHF | 0.402 |
| QHF | 1.98 |
| RHF | 1.16 |
| SHF | 1.56 |
| THF | 2.13 |
| VHF | 2.09 |
| WHF | 1.72 |
| YHF | 1.22 |
| DHF | 0.276 |
| AHG | 1.54 |
| EHG | 1.35 |
| FHG | 1.1 |
| GHG | 0.455 |
| HHG | 1.33 |
| IHG | 1.36 |
| KHG | 0.92 |
| LHG | 1.22 |
| MHG | 1.67 |
| NHG | 1.13 |
